Reference: article PMC4336329 (PLoS ONE, 2015)
The campaign covered roughly 310,000 compounds. About 2,200 (0.71%) showed an effect of 50% or more. The effect is printed as a negative number. Some of the results follow.

Biological target: human ether-à-go-go-related gene (hERG) potassium channel (human, UniProt Q12809)
Experiment: primary screen, population patch clamp on CHO cells stably expressing hERG

Sequence of human ether-à-go-go-related gene (hERG) potassium channel (Q12809 whole entry, looked up): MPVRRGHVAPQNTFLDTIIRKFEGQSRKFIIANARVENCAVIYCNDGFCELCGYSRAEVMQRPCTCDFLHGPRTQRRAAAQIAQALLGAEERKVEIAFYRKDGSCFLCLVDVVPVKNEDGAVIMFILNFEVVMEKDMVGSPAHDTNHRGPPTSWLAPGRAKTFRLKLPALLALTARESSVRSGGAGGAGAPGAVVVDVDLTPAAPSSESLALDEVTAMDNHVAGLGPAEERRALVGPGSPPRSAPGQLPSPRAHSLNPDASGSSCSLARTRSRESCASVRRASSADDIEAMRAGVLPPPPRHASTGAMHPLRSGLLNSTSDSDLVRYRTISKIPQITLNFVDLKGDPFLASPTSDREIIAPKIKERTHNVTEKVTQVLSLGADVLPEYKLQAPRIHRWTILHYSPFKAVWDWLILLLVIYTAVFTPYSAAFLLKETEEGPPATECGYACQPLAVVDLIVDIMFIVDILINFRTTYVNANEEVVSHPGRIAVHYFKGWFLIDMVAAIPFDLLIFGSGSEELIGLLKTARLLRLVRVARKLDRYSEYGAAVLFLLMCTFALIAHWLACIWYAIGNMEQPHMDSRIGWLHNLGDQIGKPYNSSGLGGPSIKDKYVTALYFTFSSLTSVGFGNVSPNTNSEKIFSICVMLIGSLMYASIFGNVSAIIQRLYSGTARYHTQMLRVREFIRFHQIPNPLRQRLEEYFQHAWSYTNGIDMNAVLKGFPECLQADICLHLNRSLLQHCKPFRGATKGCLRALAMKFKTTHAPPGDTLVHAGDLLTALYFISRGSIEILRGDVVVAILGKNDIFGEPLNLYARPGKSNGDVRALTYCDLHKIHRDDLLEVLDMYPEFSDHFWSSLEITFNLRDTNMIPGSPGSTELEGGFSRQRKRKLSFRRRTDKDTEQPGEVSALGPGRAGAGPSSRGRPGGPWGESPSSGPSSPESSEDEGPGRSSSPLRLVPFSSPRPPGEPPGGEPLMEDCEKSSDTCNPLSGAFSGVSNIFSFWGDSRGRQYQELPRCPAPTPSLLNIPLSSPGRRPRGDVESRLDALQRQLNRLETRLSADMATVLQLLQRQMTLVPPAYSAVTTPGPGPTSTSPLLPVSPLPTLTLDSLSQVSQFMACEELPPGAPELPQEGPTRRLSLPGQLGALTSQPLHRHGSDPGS

SMILES	hERG current change (%, negative = inhibition) at 1uM [%]
CN(c1ccccc1C(=O)Nc1cccc(Br)c1)S(=O)(=O)c1ccccc1	9.32
O=C(COC(=O)C1CCCCC1)Nc1ccc([N+](=O)[O-])cc1	2.62
Fc1cc(F)cc(NC(=S)NCCCN2CCOCC2)c1	-0.0818
Cc1ccsc1C(=O)Nc1ccc2c(c1)OCCO2	15.9
Cc1cccc2cc(C(c3nnnn3CC3CCCO3)N3CCCc4ccccc43)c(=O)[nH]c12 (centres unmarked)	-1.09
C#CCOCCOCCOCCNc1nc(N2CCN(C(=O)[C@H](CCC(=O)O)n3cc(C(N)CC(C)C)nn3)CC2)nc(N2CCN(C(=O)[C@H](Cc3cc4ccccc4[nH]3)n3cc(C(N)[C@H](C)CC)nn3)CC2)n1.Cl (some centres unmarked)	12.9
Cl.O=C1CSC2(CN3CCC2CC3)N1 (centres unmarked)	16.4
O=C(CN1CCC(NC(=O)Nc2ccc(F)cc2)CC1)Nc1ccccc1[N+](=O)[O-]	3.34
CCN(C(=O)CSc1nnc(-c2cccs2)o1)C1CCS(=O)(=O)C1 (centres unmarked)	8.34
CCN1C(=O)CC(N2CCN(c3cccc(OC)c3)CC2)C1=O (centres unmarked)	10.4
CN1C(=O)[C@H]2[C@@H](/C=C/c3ccccc3)N3C(=O)CN(CCO)C(=O)[C@@]3(C)[C@H]2C1=O	7.69
C/C(=N/NC(=O)c1ccncc1)c1ccc(NC(=O)c2ccccc2)cc1	15.6
CCCCCC(=O)NNC(=O)Cc1ccc([N+](=O)[O-])cc1	9.19
C=CCNC1=C(Cl)C(=O)N(c2cccc(Cl)c2Cl)C1=O	5.38
CCC(C(=O)NC1CCCC1)N(Cc1ccco1)C(=O)CNS(=O)(=O)c1ccccc1 (centres unmarked)	19.4
CC(C)(C)c1ccc(NC(=O)COC(=O)CCN2C(=O)c3cccc([N+](=O)[O-])c3C2=O)cc1	9.83
CCCN(Cc1ccc(N(C)C)cc1)CC1CC1	6.19
CN1CCN(C(=O)C2CCCN(S(=O)(=O)c3ccc(Br)cc3)C2)CC1 (centres unmarked)	1.58
Cc1nc2ccccc2c2oc(C(=O)N3CCN(C(=O)c4ccco4)CC3)cc12	-23.2
CCc1ccc(C(=O)CN(C#N)c2nc(C)cc(C)n2)cc1	-25.5
CCCCc1nnc(NC(=O)CSCc2cc(=O)n3c(C)csc3n2)s1	12.2
CCC1(C)Cc2ccccc2-c2nc(NCCCO)[nH]c(=O)c21 (centres unmarked)	1.5

SMILES	hERG current change (%, negative = inhibition) at 1uM [%]
COc1cccc(C(=O)Nc2cccc(SC)c2)c1	9.78
CCC(=O)Nc1cccc(C(=O)/C=C/c2cc(Br)ccc2OC)c1	-7.46
COc1ccc2[nH]cc(C=O)c2c1	17.9
CCO[C@@H]1OC(C(=O)N2CCCCCCC2)=C[C@H](c2csc3ccccc23)[C@H]1CCCO	7.83
O=C(COC(=O)C1CCN(S(=O)(=O)c2ccc3c(c2)OCCO3)CC1)Nc1ccc(C(F)(F)F)cc1	4.37
CN(C)C(=O)Oc1cccc(NC(=O)N2CCOCC2)c1	10.7
S=C(Nc1ccc2nsnc2c1)NC1CCCCC1	15.1
COC(=O)CCCC1=CC2=C(c3ccccc3)C(=O)C(C)(OC(=O)C3CCCC3)C(=O)C2=CN1C1CCCC1 (centres unmarked)	0.826
CCN(CC)c1ccc(CN2CCC(C(=O)NCc3ccc(C)cc3)CC2)cc1.O=C(O)C(=O)O	-13.2
CCCCCOc1ccc(Cl)cc1CN1CCOCC1.Cl	0.645
CNC(=S)N(C)[C@H]1c2c(ccc3ccccc23)OC[C@H]1CO	19.2
COc1cccc(C(=O)NC(C)c2ccc(Br)cc2)c1 (centres unmarked)	9.01
Cc1cc(Nc2ccc(F)cc2C)n2ncnc2n1	0.461
COc1ccc(S(=O)(=O)N2CCN(c3ccc4nnc(-c5ccc(F)cc5)n4n3)CC2)cc1	7.12
Cc1ccccc1CSc1ncnc2ccccc12	-1.03
Cc1nc(CC(=O)N/N=C/c2ccc(OCC(=O)O)cc2)cs1	7.44
CCc1nn(CC(=O)NC(C)CCc2ccccc2)c(=O)c2cc3cc(F)ccc3n12 (centres unmarked)	15.1
COc1cccc(OCC(O)CN2CCN(c3ccc(Cl)cc3)CC2)c1 (centres unmarked)	-14.1
COc1ccc(N2C(=O)CCC(C(=O)O)C2c2ccc(OC)c(OC)c2)cc1 (centres unmarked)	4.97
CC(=O)c1cc(CN2CCN(CCc3ccccc3)C(CCO)C2)cs1 (centres unmarked)	-10.2
COc1ccc(CCNC(=O)CSc2nc(=O)n3cccc(C)c3n2)cc1OC	10.3
COc1ccc(/C=N/Nc2nonc2N)cc1	-3.01

SMILES	hERG current change (%, negative = inhibition) at 1uM [%]
Cc1ccc(/C=C2/NC(=O)N(Cc3ccccc3)C2=O)o1	2.52
O=C(O)c1ccccc1NSc1ccccc1[N+](=O)[O-]	13
C=CCn1c(SCC(=O)NC2CCS(=O)(=O)C2)nc2scc(C3CC3)c2c1=O (centres unmarked)	-3.99
Cc1ccc(CNC(=O)CCC(=O)N2CC(C)Sc3ccccc32)cc1 (centres unmarked)	6.63
CCC(C)Sc1cccc(-c2nc3ccc(C)cn3c2NCc2ccccc2)c1.O=C(O)C(F)(F)F (centres unmarked)	11.9
Cc1ccc(C(=O)N2CC(=O)Nc3ccccc32)o1	13.8
CCOC(=O)c1ccc(NC(=O)COC(=O)c2cccc(Oc3ccccc3)c2)cc1	4.22
O=C(O)C12C[C@H]3C[C@@H](C1)CC(n1ncc(N4CCN(c5ccccc5)CC4)c(Cl)c1=O)(C3)C2	8.57
COc1ccc2[nH]c(C(=O)N3CCC(CO)(Cc4cccc(C(F)(F)F)c4)CC3)c(C)c2c1	13.3
Cc1cc(NC(=O)c2ccc(C)s2)n(-c2ccccc2)n1	6.76
O=C(NC(Cc1c[nH]c2ccccc12)C(=O)O)c1ccc(F)cc1 (centres unmarked)	11.3
Cc1ccc(Cl)cc1NC(=O)Cn1cc(C(F)(F)F)cc(Cl)c1=O	-3.49
CCOc1ccccc1Cn1c(=O)oc2ccc(C)cc21	11.7
CC1CCCC(NC(=O)CCS(=O)(=O)c2ccc3c(c2)NC(=O)CS3)C1C (centres unmarked)	-6.33
O=C(NCCOc1ccccc1F)C1CC(=O)N(c2ccc3c(c2)OCCO3)C1 (centres unmarked)	6.39
Cc1nc(N[C@@H](Cc2c[nH]c3ccccc23)C(=O)O)c2oc3ccccc3c2n1	11.4
COc1cccc(CNC(=O)c2nnn(CC(=O)Nc3cc(C)ccc3C)c2N)c1	16.2
COC(=O)[C@@H]1CCCN1Cc1nc(Cc2ccccc2F)no1	9.32
Cc1ccc(N(C)S(=O)(=O)c2cccc(C(=O)Nc3ccc(C)cn3)c2)cc1	15.7
CC(OC(=O)CCN1C(=O)C2CC=CCC2C1=O)C(=O)c1ccc(F)cc1 (centres unmarked)	5.02
COc1ccc(CCNC(=S)NC(=O)/C=C/c2ccc(C)cc2)cc1OC	8.14
CCOC(=O)N1CCN(c2cc(=O)n(-c3ccc(C)cc3)c(=O)[nH]2)CC1	-8.88

SMILES	hERG current change (%, negative = inhibition) at 1uM [%]
Cc1ccc(C(=O)Nc2scc(-c3ccccc3)c2C(=O)O)cc1	5.69
O=C(Nc1cc(=O)c2ccccc2o1)N1CCOCC1	2.21
CC(C)OC(=O)c1c(N)n(CC2CCCO2)c2nc3ccccc3nc12 (centres unmarked)	-0.289
Cc1ccc(OCCC(=O)OCC(=O)Nc2ccc3c(c2)OCO3)cc1	12.2
O=c1c(-c2ccccc2)c(O)c2cccc3c2n1CCC3	-2.8
CS(=O)(=O)N(CC(=O)N1CCOCC1)c1cccc(Cl)c1Cl	7.49
O=C(Nc1cccc(Cl)c1)N1CCN(C/C=C/c2ccccc2)CC1	-24.1
CCOC(=O)c1c(C)n(CCN2CCN(C)CC2)c2ccc(OC)cc12.Cl	3.01
O=C(NCC(=O)N(c1cccnc1)C(C(=O)NC1CCCC1)c1ccc(F)cc1)c1ccco1 (centres unmarked)	20
COC(=O)CSc1nnc(-c2ccccc2OC)n1-c1ccc(C)cc1	11.7
O=C(COc1ccc2c(-c3ccccc3)cc(=O)oc2c1)NCCCn1ccnc1	-22.9
O=C(CSc1ccccc1)NCc1ccccc1	12
CCN(CC(=O)Nc1ccc(NC(C)=O)cc1)C(=O)C1COc2ccccc2O1 (centres unmarked)	5.67
O=C(CN1C(=O)c2cccc3cccc1c23)NCc1ccncc1	1.01
CC(C)C(C(=O)NCC1CCCO1)N(Cc1cccs1)C(=O)CNS(=O)(=O)c1ccccc1 (centres unmarked)	16.1
CC(C)n1cnnc1SCC(=O)NNC(=O)COc1ccc(Cl)cc1	26.1
COc1ccccc1NC1CCCCC1NS(=O)(=O)c1ccccc1 (centres unmarked)	8.44
COc1ccccc1OCc1ccc(C(=O)Nc2ccncc2)o1	-17.4
O=C(COc1ccccc1)N1CCN(C(=O)c2cccc(F)c2)CC1	9.58
Cc1cc(C(C)(C)C)oc1C(=O)OCC(=O)NC1CCCCC1	-0.118
